# Laboratory results from the supplement of paper PMC6531468.
# The other results are listed elsewhere or left out. Values come from read counts of a selection and are noisy. Each score is taken over the longer molecules that contain the sequence shown.
# Target: IMP3 full-length (UniProt O00425)
# Assay: 6-mer SELEX enrichment z-score vs GST control; IMP3 is the RNA-binding protein IGF2BP3; higher = more enriched by binding
# Conditions: construct: FL IMP3 (1-579); SELEX round: R4
# Description: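 SELEX-seq with GST-tagged full-length IMP3 and an N40 RNA pool, round 4. Each 6-mer is scored as an enrichment z-score of sequence tags containing it, normalised to the matching GST SELEX round. RNA written as DNA (T = U).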
# UniProt O00425, sequence (O00425 whole entry): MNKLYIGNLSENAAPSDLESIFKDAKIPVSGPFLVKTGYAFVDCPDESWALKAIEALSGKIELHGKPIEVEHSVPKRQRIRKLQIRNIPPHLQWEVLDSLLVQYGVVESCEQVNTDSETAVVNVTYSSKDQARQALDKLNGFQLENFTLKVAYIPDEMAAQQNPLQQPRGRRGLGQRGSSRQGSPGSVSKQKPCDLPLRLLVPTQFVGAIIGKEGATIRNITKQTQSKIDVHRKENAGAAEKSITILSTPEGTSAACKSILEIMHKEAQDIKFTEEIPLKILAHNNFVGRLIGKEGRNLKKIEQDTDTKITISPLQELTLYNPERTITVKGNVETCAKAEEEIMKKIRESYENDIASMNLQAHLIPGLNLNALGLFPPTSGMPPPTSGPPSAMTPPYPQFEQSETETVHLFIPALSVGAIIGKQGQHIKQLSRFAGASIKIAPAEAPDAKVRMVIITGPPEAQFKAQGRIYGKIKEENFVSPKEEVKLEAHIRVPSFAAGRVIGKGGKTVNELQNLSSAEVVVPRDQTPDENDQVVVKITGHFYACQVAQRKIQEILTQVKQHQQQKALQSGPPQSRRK
row,Sequence,6-mer SELEX enrichment z-score
1,GCTGGG,0.441
2,TCGCCA,0.574
3,TTCCGT,0.256
4,TGCTCC,0.033
5,ATAGGT,0.264
6,TTAGCT,0.085
7,GAGCTG,-0.837
8,TTTACA,0.67
9,GGCACC,1.67
10,GCTCGT,0.032
11,GGCTAA,0.182
12,TAAGAC,-0.806
13,ATCTCA,0.509
14,TATTCC,-0.174
15,GTTAAG,-0.372
16,TGTACA,0.257
17,TTTGTT,0.237
18,TAGTGT,-0.237
19,AACATG,1.12
20,TTGATA,-0.247

row,Sequence,6-mer SELEX enrichment z-score
1,GAGGAT,0.114
2,GTTGCA,0.292
3,CTTGAA,-0.919
4,CAACAT,2.71
5,ATGGTC,0.369
6,TGGAGG,0.393
7,AGATAG,-0.046
8,CGAGTA,-0.589
9,GATGCA,0.322
10,GCGTAG,-1.49
11,GTTTGT,-0.029
12,GTCAAG,0.146
13,TTATTC,0.37
14,TTATAA,0.182
15,CGAAAC,-1.73
16,TAAGTT,-0.149
17,ATAGAT,0.309
18,CCGGCC,0.67
19,ATTCTC,0.276
20,TGTTAT,-0.006
